Laboratory results as given in publication PMC10899377.
Substitutions are numbered along the chain they refer to. Numbers in names are those of the source. These are yes or no findings as the source states them, for the method shown. In cells and extracts the contact can be indirect. Some entries that bind do so weakly or less than the wild type. Tags and fused reporters may be left off the sequences shown.

The chains behind the UniProt entries cited, without tags or fusion partners.
UniProt P51159: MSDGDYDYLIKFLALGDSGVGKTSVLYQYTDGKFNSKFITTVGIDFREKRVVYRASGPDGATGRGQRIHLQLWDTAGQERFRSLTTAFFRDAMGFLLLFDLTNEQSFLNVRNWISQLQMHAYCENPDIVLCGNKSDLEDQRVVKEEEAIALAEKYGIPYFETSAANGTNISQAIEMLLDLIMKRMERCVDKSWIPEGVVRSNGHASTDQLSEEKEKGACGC
UniProt P62491: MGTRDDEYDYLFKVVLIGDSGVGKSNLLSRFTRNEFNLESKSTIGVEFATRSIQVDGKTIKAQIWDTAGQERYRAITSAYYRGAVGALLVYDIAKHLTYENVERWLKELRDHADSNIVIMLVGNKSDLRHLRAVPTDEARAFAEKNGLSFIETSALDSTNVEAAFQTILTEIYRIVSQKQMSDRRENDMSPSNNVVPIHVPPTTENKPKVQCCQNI

T1: GDI2 (UniProt P50395)
T1 sequence: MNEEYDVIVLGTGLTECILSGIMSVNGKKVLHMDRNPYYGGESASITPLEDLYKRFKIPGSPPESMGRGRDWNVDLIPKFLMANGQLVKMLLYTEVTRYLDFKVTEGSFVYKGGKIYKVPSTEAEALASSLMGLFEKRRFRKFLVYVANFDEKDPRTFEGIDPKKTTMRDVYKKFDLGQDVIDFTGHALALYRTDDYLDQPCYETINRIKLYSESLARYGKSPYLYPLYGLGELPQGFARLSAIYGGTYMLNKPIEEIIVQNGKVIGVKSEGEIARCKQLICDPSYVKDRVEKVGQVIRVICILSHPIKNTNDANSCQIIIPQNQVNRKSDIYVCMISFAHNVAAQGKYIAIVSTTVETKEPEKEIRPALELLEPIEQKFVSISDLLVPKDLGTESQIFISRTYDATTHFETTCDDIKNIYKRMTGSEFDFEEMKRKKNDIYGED

T2: HA-VPS33B-1 (aa1-146) (UniProt Q9H267)
T2 sequence: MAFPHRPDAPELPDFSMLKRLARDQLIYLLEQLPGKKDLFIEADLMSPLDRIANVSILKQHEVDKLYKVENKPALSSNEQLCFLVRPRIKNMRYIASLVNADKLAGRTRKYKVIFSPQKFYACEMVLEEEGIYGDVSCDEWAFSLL

T3: HA-VPS33B-2 (aa1-304) (UniProt Q9H267)
T3 sequence: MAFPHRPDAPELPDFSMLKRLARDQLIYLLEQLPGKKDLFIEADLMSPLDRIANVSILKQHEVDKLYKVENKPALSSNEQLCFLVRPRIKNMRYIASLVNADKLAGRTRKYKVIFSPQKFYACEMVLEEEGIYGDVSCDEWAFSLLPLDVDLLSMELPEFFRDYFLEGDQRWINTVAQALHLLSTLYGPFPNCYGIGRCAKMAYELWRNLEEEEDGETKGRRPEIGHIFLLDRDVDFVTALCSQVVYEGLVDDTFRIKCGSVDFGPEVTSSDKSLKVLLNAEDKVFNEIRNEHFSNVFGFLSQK

T4: HA-VPS33B-5 (aa304-617) (UniProt Q9H267)
T4 sequence: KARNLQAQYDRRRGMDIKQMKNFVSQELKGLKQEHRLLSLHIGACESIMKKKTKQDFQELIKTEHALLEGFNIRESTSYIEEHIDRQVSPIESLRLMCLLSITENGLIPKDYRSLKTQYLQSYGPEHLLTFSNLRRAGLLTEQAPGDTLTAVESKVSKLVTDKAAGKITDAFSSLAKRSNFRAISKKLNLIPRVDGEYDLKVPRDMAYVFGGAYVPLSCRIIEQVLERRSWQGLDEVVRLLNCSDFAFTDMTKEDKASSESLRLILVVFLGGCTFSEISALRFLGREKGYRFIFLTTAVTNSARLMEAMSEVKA

T5: HA-VPS33B-WT (full-length vacuolar protein sorting 33b) (UniProt Q9H267)
T5 sequence: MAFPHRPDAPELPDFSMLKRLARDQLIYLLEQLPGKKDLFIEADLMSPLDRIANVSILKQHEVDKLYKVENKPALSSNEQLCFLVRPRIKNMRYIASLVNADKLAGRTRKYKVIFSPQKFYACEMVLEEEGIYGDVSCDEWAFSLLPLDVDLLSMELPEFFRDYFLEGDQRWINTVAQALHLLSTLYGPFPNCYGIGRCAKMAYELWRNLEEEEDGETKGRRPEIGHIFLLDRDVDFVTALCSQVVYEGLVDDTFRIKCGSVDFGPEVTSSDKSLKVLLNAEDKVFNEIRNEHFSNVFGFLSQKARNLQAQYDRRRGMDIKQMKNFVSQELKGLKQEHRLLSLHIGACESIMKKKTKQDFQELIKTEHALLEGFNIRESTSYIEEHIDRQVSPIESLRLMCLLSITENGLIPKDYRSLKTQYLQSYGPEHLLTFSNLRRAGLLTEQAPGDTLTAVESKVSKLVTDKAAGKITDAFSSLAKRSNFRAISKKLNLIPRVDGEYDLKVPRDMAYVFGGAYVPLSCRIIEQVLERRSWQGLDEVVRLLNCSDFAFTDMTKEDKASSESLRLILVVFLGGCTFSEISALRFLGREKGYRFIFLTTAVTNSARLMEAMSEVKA

T6: HA-VPS33B-3 (aa1-566) (UniProt Q9H267)
T6 sequence: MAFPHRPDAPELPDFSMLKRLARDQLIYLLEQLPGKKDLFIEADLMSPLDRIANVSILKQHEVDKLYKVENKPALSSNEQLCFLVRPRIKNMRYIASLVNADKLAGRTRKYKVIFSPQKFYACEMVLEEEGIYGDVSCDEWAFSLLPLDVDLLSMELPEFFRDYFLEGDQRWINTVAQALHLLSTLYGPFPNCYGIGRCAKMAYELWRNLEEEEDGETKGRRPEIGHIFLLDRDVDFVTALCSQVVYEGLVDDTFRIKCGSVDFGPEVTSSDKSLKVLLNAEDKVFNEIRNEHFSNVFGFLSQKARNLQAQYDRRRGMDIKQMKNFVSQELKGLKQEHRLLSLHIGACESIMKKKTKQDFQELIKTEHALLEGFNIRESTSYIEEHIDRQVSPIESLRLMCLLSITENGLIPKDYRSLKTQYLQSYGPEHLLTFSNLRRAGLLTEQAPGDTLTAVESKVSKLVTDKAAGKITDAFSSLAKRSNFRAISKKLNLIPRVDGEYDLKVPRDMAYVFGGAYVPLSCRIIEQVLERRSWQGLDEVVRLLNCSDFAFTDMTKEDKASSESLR

T7: HA-VPS33B-4 (aa146-615) (UniProt Q9H267)
T7 sequence: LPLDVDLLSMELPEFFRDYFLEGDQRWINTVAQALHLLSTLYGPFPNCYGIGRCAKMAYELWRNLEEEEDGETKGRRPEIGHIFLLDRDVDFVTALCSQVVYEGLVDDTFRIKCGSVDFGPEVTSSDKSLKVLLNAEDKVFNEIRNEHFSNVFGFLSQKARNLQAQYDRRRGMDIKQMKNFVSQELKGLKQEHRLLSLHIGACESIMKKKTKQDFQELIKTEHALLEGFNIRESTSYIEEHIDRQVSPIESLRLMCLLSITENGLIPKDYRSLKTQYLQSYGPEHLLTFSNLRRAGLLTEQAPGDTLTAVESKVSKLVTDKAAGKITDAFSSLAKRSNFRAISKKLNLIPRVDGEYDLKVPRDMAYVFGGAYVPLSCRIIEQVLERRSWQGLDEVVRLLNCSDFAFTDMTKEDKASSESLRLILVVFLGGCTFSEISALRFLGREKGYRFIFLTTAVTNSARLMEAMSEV

B1: Flag-ANGPTL2 (angiopoietin-like protein 2, wild type) (protein, UniProt Q9UKU9 23-493)
chain: QEDGFEGTEEGSPREFIYLNRYKRAGESQDKCTYTFIVPQQRVTGAICVNSKEPEVLLENRVHKQELELLNNELLKQKRQIETLQQLVEVDGGIVSEVKLLRKESRNMNSRVTQLYMQLLHEIIRKRDNALELSQLENRILNQTADMLQLASKYKDLEHKYQHLATLAHNQSEIIAQLEEHCQRVPSARPVPQPPPAAPPRVYQPPTYNRIINQISTNEIQSDQNLKVLPPPLPTMPTLTSLPSSTDKPSGPWRDCLQALEDGHDTSSIYLVKPENTNRLMQVWCDQRHDPGGWTVIQRRLDGSVNFFRNWETYKQGFGNIDGEYWLGLENIYWLTNQGNYKLLVTMEDWSGRKVFAEYASFRLEPESEYYKLRLGRYHGNAGDSFTWHNGKQFTTLDRDHDVYTGNCAHYQKGGWWYNACAHSNLNGVWYRGGHYRSRYQDGVYWAEFRGGSYSLKKVVMMIRPNPNTFH
B2: ANGPTL2-Mut#2 (R399H and G402S), FLAG-tagged (protein, UniProt Q9UKU9 23-493)
chain: B1 chain with R377H, G380S

Experiments:
GDI2 = biological target: T1, GDI2; assay: co-IP; immunoprecipitation of WT ANGPTL2 or ANGPTL2 mutants with GDI2, RAB27A or RAB11A; HEK293T lysates; anti-HA or anti-Flag M2 beads, 4 °C; Western blot; which side was precipitated is not told
RAB27A = RAB27A (UniProt P51159); assay: as above
RAB11A = RAB11A (UniProt P62491); assay: as above
HA-VPS33B-1 (aa1-146) = biological target: T2, HA-VPS33B-1 (aa1-146); assay: co-IP; HEK293T cells co-transfected with HA-VPS33B and Flag-ANGPTL2 plasmids; Pierce IP lysis buffer; lysates immunoprecipitated with anti-HA (plus Protein A/G agarose) or anti-Flag M2 beads overnight at 4 °C; beads washed ten times; Western blot
HA-VPS33B-2 (aa1-304) = biological target: T3, HA-VPS33B-2 (aa1-304); assay: as above
HA-VPS33B-5 (aa304-617) = biological target: T4, HA-VPS33B-5 (aa304-617); assay: as above
[1] = biological target: T5, HA-VPS33B-WT (full-length vacuolar protein sorting 33b); assay: as above
HA-VPS33B-3 (aa1-566) = biological target: T6, HA-VPS33B-3 (aa1-566); assay: as above
HA-VPS33B-4 (aa146-615) = biological target: T7, HA-VPS33B-4 (aa146-615); assay: as above

| Binder | binding (GDI2) | binding (RAB27A) | binding (RAB11A) | binding (HA-VPS33B-1 (aa1-146)) | binding (HA-VPS33B-2 (aa1-304)) | binding (HA-VPS33B-5 (aa304-617)) | binding [1] | binding (HA-VPS33B-3 (aa1-566)) | binding (HA-VPS33B-4 (aa146-615)) |
| --- | --- | --- | --- | --- | --- | --- | --- | --- | --- |
| B1 | binds | binds | binds | binds | binds | no binding | binds | binds | no binding |
| B2 | – | – | binds | – | – | – | binds | – | – |
